Results reported in the RNAGym collection of RNA variant scans (doi:10.1093/nar/gkz1192).
The source gives no read counts; variants with many changes may rest on few reads.

B1: CPEB3 Ribozyme (parent)
chain: UAACAGGGGGCCACAGCAGAAGCGUUCACGUCGCAGCCCCUGUCAGAUUCUGGUGAAUCUGCGAAUUCUGCUGUAUAUCUC

Variants of: B1
Assay: self-cleavage, relative activity (ratio to wild type); higher = more cleavage; in vitro, sequencing
Summary of the method: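 Relative activity compares each variant's cleaved/total read fraction with that of the unmutated ribozyme. To get these fractions, barcoded CPEB3 ribozyme libraries from rounds of error-prone PCR were transcribed with T7 RNA polymerase for 5 hours at 37°C and then given 15 min of DNase I treatment before EDTA was added. The RNAs were reverse transcribed with template switching and sequenced on Illumina, and DNA sequencing linked barcodes to variants. A minimum of 5 reads applied, and three batches were averaged.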

Variant | self-cleavage
UAACUGGGGGCCACAGCAGAAGCGUUCACGUCGCAGCCCCUGUCAGAUUCAGGUGAAUCUGCGAAUUCUGCUGUAUGUCUC [A5U U51A A77G] | 1.12
UAACUGGGGGCCACAGCAGAAGCGUUCACGUCGCAGCCCCUGUCAGAUUCUGGUGAAACUGCGAGUUCUGCUGUAUACCUC [A5U U58A A65G U78C] | 0.15
UAACUGGGGGCCACAGCAGAAGCGUUCACGUCGCAGCCCCUGCCGGAUUCUGGUGAAUCUGCGAAUUCUGCUGUAUAUCUC [A5U U43C A45G] | 0.66
UAACUGGGGGCCACAGCAGAAGCGUUCACGUCGCAGCCCCUGUCAGACUCUGGUGGAUCUGCGUAUUCCGCUGUAUAUCUC [A5U U48C A56G A64U U69C] | 0.19
UAACUGGGGGCCACAGCAGAAGCGUUCACGUCGCAGCCCCUGACAGAUUCUGGUGAAUCUGCGUAUUCUGCUGUAUAUCUC [A5U U43A A64U] | 0.44
UAACUGGGGGCCACAGCAGAAGCGUUCACGUCGCAGCCCCGGUCAGAUUCUGGUGAAUCUGCGAAUUCUGCCGUAUAUCUC [A5U U41G U72C] | 0.32
UAACUGGGGGCCACAGCAGAAGCGUUCACGUCGCAGCCCCUGUCAGAUCCUGAUGAAUCCGCGAAUUCUGCUGUAUAUCUC [A5U U49C G53A U60C] | 0.38
UAACUGGGGGCCACAGCAGAAGCGUUCACGUCGCAGCCCCUGCCAGACUCUGGAGGAUCCGCGAAUUCUGCCGUAUAUCUC [A5U U43C U48C U54A A56G U60C U72C] | 0.33
UAACUGGGGGCCACAGCAGAAGCGUUCACGUCGCAGCCCCUGACAGAUUCUGGUGAAUCUGCGAAUUCUGCUGUGUAUCUC [A5U U43A A75G] | 1.02
UAACUGGGGGCCACAGCAGAAGCGUUCACGUCGCAGCCCCUGUCAGAUCCUGGUGAAUCAGCGGAUUCUGCUGUAUAUCUC [A5U U49C U60A A64G] | 0.1
UAACUGGGGGCCACAGCAGAAGCGUUCACGUCGCAGCCCCUGUCAGAUUCUGGUGAAUCCGCGAAUUCUGCCUUAUAUCUC [A5U U60C U72C G73U] | 0.59
UAACUGGGGGCCACAGCAGAAGCGUUCACGUCGCAGCCCCUGUCAGAUUCUGGUGAACCUGCGAAUUCUGCAGUAUAUCUC [A5U U58C U72A] | 0.68
UAACUGGGGGCCACAGCAGAAGCGUUCACGUCGCAGCCCCUGACAGAUUCCGGUGAAUCUGCUAAUUCUGCUGUAUAUCUC [A5U U43A U51C G63U] | 1.24
UAACUGGGGGCCACAGCAGAAGCGUUCACGUCGCAGCCCCUGUCAGAUCCUGGUGAAUCUGCGAAUUCUGCUGUGUAUCUC [A5U U49C A75G] | 0.43
UAACUGGGGGCCACAGCAGAAGCGUUCACGUCGCAGCCCCUGUCAGAUUCUGGAGAGUCUGCGAAUACUGCUGUAGGUCUC [A5U U54A A57G U67A U76G A77G] | 0.11
UAACUGGGGGCCACAGCAGAAGCGUUCACGUCGCAGCCCCUGUCAGAUUCUGGUGAAUCCGCGAACUCUGCUGUAUAUCUC [A5U U60C U66C] | 0.35
UAACUGGGGGCCACAGCAGAAGCGUUCACGUCGCAGCCCCUGCCAGAUUCUGGUGAAUCUGCAAAUUCAGCUGUAUAUCUC [A5U U43C G63A U69A] | 0.23

Variant | self-cleavage
UAACUGGGGGCCACAGCAGAAGCGUUCACGUCGCAGCCCCUGUCAGACUCUGGUGAAUCCGCGAAUUCUGCUGUAUAACUC [A5U U48C U60C U78A] | 0.19
UAACUGGGGGCCACAGCAGAAGCGUUCACGUCGCAGCCCCUGCCAGAUUCUGGUGAAUCUGCGAAUUCCGCUGUAUAUCUC [A5U U43C U69C] | 0.33
UAACUGGGGGCCACAGCAGAAGCGUUCACGUCGCAGCCCCUGUCAGAUACCGGUGAAUCUGCGAAUUCUGCCGUAUAUCUC [A5U U49A U51C U72C] | 1.07
UAACUGGGGGCCACAGCAGAAGCGUUCACGUCGCAGCCCCUGUCAGAUCCUGGUGAGUCUGCGAAUUCUGCUGUAUAUCUC [A5U U49C A57G] | 0.51
UAACUGGGGGCCACAGCAGAAGCGUUCACGUCGCAGCCCCUGUCAGAUUCUGGUGAAACUGCGCAUUCUGCUGCUUAUCUC [A5U U58A A64C U74C A75U] | 0.3
UAACUGGGGGCCACAGCAGAAGCGUUCACGUCGCAGCCCCUGUCAGAUUCUGGUGAACCUGCGAAUUCAGCUGUAUAUCUC [A5U U58C U69A] | 0.34
UAACUGGGGGCCACAGCAGAAGCGUUCACGUCGCAGCCCCUGCCAGAUUCUGGUGAAUCUGCGAAUUCGGCUGUAUAUCAC [A5U U43C U69G U80A] | 0.32
UAACUGGGGGCCACAGCAGAAGCGUUCACGUCGCAGCCCCUGCCAGAUUCUGGUGAAUCUGCGAAUUCUGCCGUAUAUCUC [A5U U43C U72C] | 1.06
UAACUGGGGGCCACAGCAGAAGCGUUCACGUCGCAGCCCCUGUCAGACUGUGGUGAAUCUGCGAAUUCUGCUGUAUAUCUC [A5U U48C C50G] | 0.42
UAACUGGGGGCCACAGCAGAAGCGUUCACGUCGCAGCCCCUGUCAGAUUCUGGUGAAUCAGCGAAUUCCGCUGUAUAUCUC [A5U U60A U69C] | 0.3
UAACUGGGGGCCACAGCAGAAGCGUUCACGUCGCAGCCCCUGUCAGAUUCUGGCGAAUCUGCGAAUUCUGCUGUACAUCUC [A5U U54C U76C] | 1.15
UAACUGGGGGCCACAGCAGAAGCGUUCACGUCGCAGCCCCUGUCAGACUCCGGUGAAUCCGUGAAUUCUGCUGUAUAUCUC [A5U U48C U51C U60C C62U] | 0.35
UAACUGGGGGCCACAGCAGAAGCGUUCACGUCGCAGCCCCUGUCAGAUCCUGGUGAGUCUGCGUAUUCUGCUGUAUAUCUC [A5U U49C A57G A64U] | 0.07
UAACUGGGGGCCACAGCAGAAGCGUUCACGUCGCAGCCCCUGUCAGAUUCUGGCGAAUCUGCGAAUUCUGUCGUAUAUCUC [A5U U54C C71U U72C] | 1.01
UAACUGGGGGCCACAGCAGAAGCGUUCACGUCGCAGCCCCUGUCAGAUUCUGGCGAAUCUGCGUAUUCUGCAGUAUAUCUC [A5U U54C A64U U72A] | 0
UAACUGGGGGCCACAGCAGAAGCGUUCACGUCGCAGCCCCUGUCAGAUUCCGGUGAAUCUGCGAAUUCCGCUGUAUAUCUC [A5U U51C U69C] | 0.88
UAACUGGGGGCCACAGCAGAAGCGUUCACGUCGCAGCCCCUGUCAGAUUCUGGUGAACCUGCGAAUUAUGCUGUAUAUCUC [A5U U58C C68A] | 0.45
